Test results as given in PubChem BioAssay AID1346378 (National Center for Advancing Translational Sciences (NCATS), 2018).
Several values for one entry are separate records, joined by “and”; a condition that tells them apart may be missing. Equal entries are not always repeated. The campaign covered roughly 420,000 compounds. About 540 (0.13%) were called active. Inconclusive means that the source gave no clear call. Such entries were picked first, then a sample of the others. No stated cut-off is given here; in the data, active means activity change below about -50%; inconclusive means mostly about -30% to -49%; inactive means weaker than that.

Target: Phosphatidylinositol 4-kinase type 2-alpha (Homo sapiens) (UniProt Q9BTU6)
Assay: qHTS for small molecular inhibitors of PI4K2A;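 further: -100% = wells without enzyme as full effect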
Details: purified PI4K2A, ADP-Glo luminescence, 1 h; at 76.9 µM, active compounds read low
Method in brief: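 PI4K2A activity was measured by ADP-Glo luminescence: enzyme (4 ug/mL stock) and phosphatidylinositol (1.2 mM stock) in Tris pH 7.5/MgCl2/EGTA/Triton X-100 buffer were reacted with ATP (300 microM stock) for one hour at ambient temperature.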

Chain of UniProt Q9BTU6 (Q9BTU6 whole entry, looked up): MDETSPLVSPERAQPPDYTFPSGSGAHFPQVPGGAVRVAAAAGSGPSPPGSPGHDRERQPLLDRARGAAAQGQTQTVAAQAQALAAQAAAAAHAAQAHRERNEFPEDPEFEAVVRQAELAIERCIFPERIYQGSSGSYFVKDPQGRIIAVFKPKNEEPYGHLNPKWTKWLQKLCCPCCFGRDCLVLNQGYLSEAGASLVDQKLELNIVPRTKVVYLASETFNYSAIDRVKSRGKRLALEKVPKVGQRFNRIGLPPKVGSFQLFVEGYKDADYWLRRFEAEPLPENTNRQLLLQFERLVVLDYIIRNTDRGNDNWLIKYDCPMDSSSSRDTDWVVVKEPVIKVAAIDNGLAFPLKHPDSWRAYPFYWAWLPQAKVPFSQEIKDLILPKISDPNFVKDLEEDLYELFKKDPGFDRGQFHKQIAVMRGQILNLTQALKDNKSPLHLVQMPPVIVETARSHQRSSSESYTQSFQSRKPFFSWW

| Compound | activity change, negative = inhibition |
| --- | --- |
| COc1ccc2ccc3c(c2c1)N=C[C@]1(O3)N(C)c2ccccc2C1(C)C | active: -68.1% |
| O=c1cc(CSc2ccc(Cl)cc2)nc(-c2ccccn2)[nH]1 | inconclusive: -30.4% |
| CCC(NC(=O)Nc1ccc(O)cc1)(C(F)(F)F)C(F)(F)F | active: -51.8% |
| COc1ccc(NC(=O)CSc2nc3nc(C)cc(C)c3c(=O)[nH]2)cc1OC | inconclusive: -36.6% |
| CCSc1ncc(Cl)c(C(=O)Nc2ccc(S(=O)(=O)Nc3ncccn3)cc2)n1 | inactive: -0.877% and inactive: -5.11% |
| COc1ccc(-c2cc(C(=O)O)[nH]n2)cc1OC | active: -73% |
| O=C1C=C(Nc2ccc(O)cc2)C(=O)c2ccccc21 | active: -56.1% |
| Oc1ccc(NCc2cccc(OCc3ccc(F)cc3)c2)cc1 | inconclusive: -45% |
| CCc1n[n+](CC(=O)c2ccccc2)c(N)s1 | inconclusive: -49.2% |
| COc1ccc(/C=N/NC(=O)c2nonc2C)cc1 | inconclusive: -35% |
| C[C@H]1[C@H](NC(=O)c2ccc(Cl)cc2)CC[C@@]23CCCN2C(=O)CCC[C@@H]13 | inactive: -3.23% |
| CCC(C(=O)N1CCN(c2ncccn2)CC1)c1ccccc1 (stereo unspecified) | inactive: -3.75% |
| O=C(NC(=S)Nc1nc2c(s1)CSc1ccccc1-2)c1ccccc1 | inactive: 1.73% |
| COc1ccc(-n2cnc3c(sc4nccc(N(C)C)c43)c2=O)cc1 | inconclusive: -45.6% |
| Oc1ccc(NCc2ccc(OCc3ccccc3)cc2)cc1 | inconclusive: -48.7% and inconclusive: -43.5% |
| CCC(=O)Nc1cc(=O)[nH]c2nc(-c3ccc(Cl)cc3)nn12 | inactive: -1.18% |
| COc1ccc(S(=O)(=O)N(C(C)=O)c2ccc3oc(=O)sc3c2)cc1 | inconclusive: -33.3% |
| CCOc1ccc(N/C=C/C(=O)c2ccccc2)cc1 | active: -50.8% |
| Cn1c(=O)n(C)c2cc(NC(=O)COc3ccc(Cl)cc3)ccc21 | inactive: -0.303% |
| N=C1CCC(=N)c2c1c(O)c1ccccc1c2O | inconclusive: -40.6% |
| CCN(CCCNC(=O)c1cc2c(-c3cccc(OC)c3)nn(C)c2s1)Cc1ccccc1 | inactive: 0.0359% |
| NNC(=O)c1cc2c(ccc3ccccc32)o1 | inactive: 1.37% |
| C/C(=N/Nc1ccc(C(=O)O)cc1)c1ccc(O)c(O)c1O | inactive: -7.03% |

| Compound | activity change, negative = inhibition |
| --- | --- |
| CC(=O)c1cc(O)c2ccccc2c1O | inactive: -18.8% |
| Cc1cccc(C(=O)N=c2c(C#N)cc3c(=O)n4cccc(C)c4nc3n2Cc2ccco2)c1 | inconclusive: -39.7% |
| CN(C)c1ccc(/C=C/c2ccc3ccccc3[n+]2C)cc1 | inconclusive: -34.7% |
| CC(=O)NC1=C(Nc2ccc(N(C)C)cc2)C(=O)c2ccccc2C1=O | inconclusive: -39.6% |
| Nc1ccc(-c2nc3ccccc3s2)cn1 | inactive: 3.1% |
| COc1ccc2c(c1)Cc1sc(NC(=O)c3ccccc3Br)nc1-2 | inconclusive: -41.7% |
| O=C(NC1C(=O)NNC1c1ccccc1)c1ccccc1 (stereo unspecified) | inconclusive: -46.7% |
| [O-]/C(=C(\C(=S)NCc1ccco1)[n+]1ccccc1)c1ccccc1Br | inconclusive: -38.5% |
| Cc1cc(O)c(C(C)C)cc1N=Cc1cc([N+](=O)[O-])ccc1O | inactive: -0.772% |
| CCOC(=O)c1sc2nccc(OC)c2c1N=CNOC | active: -59.3% |
| Cc1ccc(-c2nc(-c3ccccn3)no2)cc1Cl | inconclusive: -40.2% |
| COc1ccc(NC(=O)c2cnn(-c3ccccc3)c2C)cc1 | inconclusive: -44.3% |
| Cc1[nH]n(-c2ccccc2)c(=O)c1S(=O)(=O)c1ccccc1 | inconclusive: -40% |
| O=S(=O)(O)c1ccc(O)c2cc(Nc3ccccc3)ccc12 | inconclusive: -46.4% |
| CCOC(=O)/C=c1\s/c(=C\c2ccc(C(F)(F)F)cc2)c(=O)n1CC(=O)NCc1ccco1 | inconclusive: -32.6% |
| CCCC[C@@H]1C(=O)N2N=Cc3cc4ccccc4cc3[C@H]2N2N=Cc3cc4ccccc4cc3[C@@H]12 | inconclusive: -31.1% |
| O=C1c2ccccc2C(=O)C12OC2c1cccc2ccccc12 (stereo unspecified) | inconclusive: -48.2% |
| Cc1ccc(-c2cc(C(=O)NN=C/C=C/c3ccco3)[nH]n2)cc1C | inconclusive: -43% |
| Nc1c(S(=O)(=O)O)cc(Nc2ccc(Nc3nc(Cl)nc(Nc4ccc(S(=O)(=O)O)cc4)n3)c(S(=O)(=O)O)c2)c2c1C(=O)c1ccccc1C2=O | inconclusive: -45.2% |
| Nc1ncnc(Nc2ccc(S(N)(=O)=O)cc2)n1 | active: -65% |
| CC(Oc1ccc2c(-c3ccccc3)cc(=O)oc2c1)C(=O)NC(Cc1c[nH]c2ccccc12)C(=O)O (stereo unspecified) | inconclusive: -36.8% |
| Oc1ccc(C=NNC(=S)Nc2cccnc2)nc1 | inconclusive: -36% |
| O=C(NCc1ccccc1Cl)c1ccc2c(c1)N(Cc1ccccc1)C(=O)c1ccccc1S2 | inactive: -2.66% |

| Compound | activity change, negative = inhibition |
| --- | --- |
| COc1cc(SC)ccc1C(=O)Nc1nc(C)cs1 | inconclusive: -48% |
| O=C(CSc1ccccc1)N1CCN(S(=O)(=O)c2cccs2)CC1 | inactive: 0.0905% |
| O=C(Nn1cnnc1)c1ccc(Cl)c([N+](=O)[O-])c1 | inactive: 19.9% |
| CN(C)c1ccc(-c2nc3ccccc3n2C)cc1 | inconclusive: -33.4% |
| c1ccc(CSc2nnc(-c3ccco3)c(-c3ccco3)n2)cc1 | inconclusive: -38.1% |
| COc1cc(/C=C2/SC(=S)N(CCC(=O)Nc3ccc(C(=O)O)cc3)C2=O)cc(OC)c1OC | inactive: -7.52% |
| CCOc1cc(CNc2ccc(O)cc2)cc(Br)c1OCc1ccccc1 | inconclusive: -35.9% |
| CCC(=O)Oc1ccc(-c2nc(-c3cccnc3)no2)cc1 | active: -55.2% |
| COc1ccc(-c2cc(-c3ccccc3)no2)cc1 | inconclusive: -34.8% |
| Oc1ccc(NCc2cccc(OCc3ccccc3)c2)cc1 | inconclusive: -48.4% |
| S=c1c2c(nc3nc[nH]n13)CCC2 | inconclusive: -32.1% |
| CCOC(=O)Cc1csc(NC(=O)c2ccoc2C)n1 | active: -50.2% |
| CCN(CC)c1ccc(/C=N/NC(=O)c2ccoc2C)cc1 | inconclusive: -35.4% |
| c1nc(N2CCCCC2)c2[nH]cnc2n1 | inconclusive: -33.4% |
| Cc1ccc(NC(=O)N2CCc3ccccc32)cc1 | inconclusive: -32.4% |
| COc1cc(C)ccc1OCC(=O)Nc1ccccc1N1CCOCC1 | inactive: -3.32% |
| Nc1cc2nsnc2cc1Br | inconclusive: -37.4% |
| CCCC(C(=O)NC1CCCC1)N(C(=O)Cn1nnc(-c2ccc(C)o2)n1)C1CCCC1 (stereo unspecified) | inactive: -5.42% |
| O=C(Nc1ccc(N2CCCCC2)cc1)c1ccc(F)cc1F | inconclusive: -34.9% |
| O=C(/C=C/Nc1ccc(F)cc1Br)c1ccccc1 | inconclusive: -46.9% |
| Cc1ccc(C(c2nnnn2CCc2ccccc2)N2CCC(C)CC2)cc1 (stereo unspecified) | inactive: -3.96% |
| CC(C)(C)NC(=O)CC1C[C@H](C(=O)N2CCCCC2)[C@@]2(C)c3[nH]c4ccccc4c3CCN2C1=O (stereo partly specified) | active: -58.9% |
| Nc1c(C(=O)Nc2nc3ccccc3s2)sc2nc(-c3cccs3)ccc12 | active: -63.4% |

| Compound | activity change, negative = inhibition |
| --- | --- |
| Cc1cc(C)nc(SCC(=O)Nc2ccccc2[N+](=O)[O-])n1 | inactive: 0.0898% |
| Cc1cccc(NC(=O)c2ccc3c(c2)OCCO3)c1 | inconclusive: -37.8% |
| O=S(=O)(O)c1ccc(N=Nc2ccccc2)cc1 | inconclusive: -30.9% |
| Nc1cc(N)c(OCC(F)(F)F)cc1OCC(F)(F)F | inconclusive: -44.4% |
| COc1ccc(/C=N/Nc2nnc(C)n2N)cc1OC(C)=O | inconclusive: -35.9% |
| C[C@@H]1[C@@H](Sc2ccccc2)CC(=O)O[C@@H]1c1ccc(-c2ccccc2)cc1 | active: -62.7% |
| O=C(/C=C/c1ccccc1)Nc1nc(-c2ccncc2)cs1 | inactive: -1.82% |
| Cc1ccc(CSCC(=O)N2CCOCC2)cc1 | inactive: 0.107% |
| Oc1ccc(/C=N/NC(=S)Nc2cccnc2)c(O)c1O | inactive: -3.01% |
| CCOc1ccc(S(=O)(=O)Nc2cccc(Cl)c2)cc1 | inactive: -2.01% |
| COc1ccc(-c2ccc(C(c3c(C)[nH][nH]c3=O)c3c(C)[nH][nH]c3=O)o2)c([N+](=O)[O-])c1 | inconclusive: -47% |
| Cc1nc(-c2ccc(NC(=O)c3ccc(Br)o3)cc2)cs1 | inconclusive: -34.5% |
| Nc1nonc1C(=O)NCCN=Cc1cc(Cc2ccccc2)cc(Br)c1O | inconclusive: -43.4% |
| C[n+]1c(-c2ccccc2)cc2c(=Cc3ccc([N+](=O)[O-])cc3)c3ccccc3n21 | inconclusive: -30.8% |
| Cn1c(-c2ccccc2)c(C#Cc2ccc(N)cc2)c2ccccc21 | inactive: -12.7% |
| CCOC(=O)c1sc2nccc(N(C)C)c2c1N=CNOC | inconclusive: -35.7% |
| Cc1ccc2nc(-c3ccccn3)[nH]c2c1 | inconclusive: -32.9% |
| Cc1ccc2nc(-c3ccccc3N)[nH]c2c1 | inconclusive: -31.1% |
| O=C(CN1C(=O)S/C(=C\c2ccccc2F)C1=O)NC1C=CS(=O)(=O)C1 (stereo unspecified) | inconclusive: -39.1% |
| O=C1/C(=C\c2ccncc2)CCc2ccccc21 | inconclusive: -38.3% |
| CCOC(=O)COc1nc(-c2ccco2)cc(-c2ccco2)c1C#N | inconclusive: -32.2% |
| COC(=O)c1ccc(C23CC4(C2)[C@H](CN(Cc2cccnc2)[C@@H]4c2ccccc2)C3c2ccc(C(F)(F)F)cc2)cc1 (stereo partly specified) | inactive: 4.04% |
